# Data published in the supplement of paper PMC8728848.
# Some of the results follow.
# B1: Tectonin 2 (Laccaria bicolor) (protein)
# chain: MPWKGISGSLSRISAGSVTNVWGVNAANNIYRYTGDDAKPWVQIPGALTDIGAAADGTVWGVNAAGNIYRYVWDSNHWTQIKGALKRISAGSRTNVWGVNAGGAIYRYTGDDANPWVQIPGVLSDIGAGADGTVWGVNAAGEIYRYTGDQGDPNHWVKIPGALSAISAGIKTNVWGVNSANNIYTSTGDDKNPWLGIGGSLVDIGAGTDGVVWGVNAGGGIYRWIRD
# How the values were obtained:
# Test in all cases: glycan array binding signal (z-score within array); higher = stronger binding
# Conditions in all cases: glycan notation: IUPAC condensed, linker removed
# [1] = biological target: Neu5Ac(a2-3)Gal(b1-4)[Fuc(a1-3)]GlcNAc(b1-3)Gal(b1-4)GlcNAc
# Method in brief: (§1)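 The binding signal is a Z-score computed within each array. Data were drawn from 3228 arrays in the Consortium for Functional Glycomics database, restricted to those with a known protein sequence. Scores were averaged over arrays of the same protein sequence at different concentrations or buffers, and over linkers, and negative values can be taken as non-binding.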
# [2] = biological target: Neu5Ac(a2-3)Gal(b1-4)[Fuc(a1-3)]GlcNAc(b1-3)Gal(b1-4)[Fuc(a1-3)]GlcNAc(b1-3)Gal(b1-4)[Fuc(a1-3)]GlcNAc
# Method in brief: as §1
# [3] = biological target: Neu5Ac(a2-3)Gal(b1-4)[Fuc(a1-3)]GlcNAc(b1-3)GalNAc
# Method in brief: as §1
# [4] = biological target: Neu5Ac(a2-3)Gal(b1-4)[Fuc(a1-3)]GlcNAc(b1-6)[Gal(b1-3)]GalNAc
# Method in brief: as §1
# [5] = biological target: Neu5Ac(a2-3)Gal(b1-4)[Fuc(a1-3)]GlcNAc(b1-6)[Neu5Ac(a2-3)Gal(b1-3)]GalNAc
# Method in brief: as §1
# [6] = biological target: Neu5Ac(a2-3)Gal(b1-4)[Fuc(a1-3)]GlcNAc6S
# Method in brief: as §1
# [7] = biological target: Neu5Ac(a2-3)Gal6S(b1-4)GlcNAc
# Method in brief: as §1
# [8] = biological target: Neu5Ac(a2-3)Gal6S(b1-4)[Fuc(a1-3)]GlcNAc
# Method in brief: as §1
# [9] = biological target: Neu5Ac(a2-3)GalNAc
# Method in brief: as §1
# [10] = biological target: Neu5Ac(a2-3)GalNAc(b1-4)GlcNAc
# Method in brief: as §1
# [11] = biological target: Neu5Ac(a2-3)[GalNAc(b1-4)]Gal(b1-4)Glc
# Method in brief: as §1
# [12] = biological target: Neu5Ac(a2-3)[GalNAc(b1-4)]Gal(b1-4)GlcNAc
# Method in brief: as §1
# [13] = biological target: Neu5Ac(a2-3)[GalNAc(b1-4)]Gal(b1-4)GlcNAc(b1-3)GalNAc
# Method in brief: as §1
# [14] = biological target: Neu5Ac(a2-3)[Neu5Ac(a2-6)]GalNAc
# Method in brief: as §1
# [15] = biological target: Neu5Ac(a2-6)Gal
# Method in brief: as §1
# [16] = biological target: Neu5Ac(a2-6)Gal(b1-3)GlcNAc(b1-3)[Gal(b1-4)GlcNAc(b1-6)]Gal(b1-4)Glc
# Method in brief: as §1
# [17] = biological target: Neu5Ac(a2-6)Gal(b1-4)Glc
# Method in brief: as §1
# [18] = biological target: Neu5Ac(a2-6)Gal(b1-4)GlcNAc
# Method in brief: as §1
# [19] = biological target: Neu5Ac(a2-6)Gal(b1-4)GlcNAc(b1-2)Man(a1-3)Man(b1-4)GlcNAc(b1-4)GlcNAc
# Method in brief: as §1
# [20] = biological target: Neu5Ac(a2-6)Gal(b1-4)GlcNAc(b1-2)Man(a1-3)[Gal(b1-4)GlcNAc(b1-2)Man(a1-6)]Man(b1-4)GlcNAc(b1-4)GlcNAc
# Method in brief: as §1
# [21] = biological target: Neu5Ac(a2-6)Gal(b1-4)GlcNAc(b1-2)Man(a1-3)[GlcNAc(b1-2)Man(a1-6)]Man(b1-4)GlcNAc(b1-4)GlcNAc
# Method in brief: as §1
# [22] = biological target: Neu5Ac(a2-6)Gal(b1-4)GlcNAc(b1-2)Man(a1-3)[GlcNAc(b1-2)Man(b1-4)GlcNAc(b1-2)Man(a1-6)]Man(b1-4)GlcNAc(b1-4)GlcNAc
# Method in brief: as §1
# [23] = biological target: Neu5Ac(a2-6)Gal(b1-4)GlcNAc(b1-2)Man(a1-3)[Man(a1-6)]Man(b1-4)GlcNAc(b1-4)GlcNAc
# Method in brief: as §1
# [24] = biological target: Neu5Ac(a2-6)Gal(b1-4)GlcNAc(b1-2)Man(a1-3)[Neu5Ac(a2-6)Gal(b1-4)GlcNAc(b1-2)Man(a1-6)]Man(b1-4)GlcNAc(b1-4)GlcNAc
# Method in brief: as §1
# [25] = biological target: Neu5Ac(a2-6)Gal(b1-4)GlcNAc(b1-2)Man(a1-6)Man(b1-4)GlcNAc(b1-4)GlcNAc
# Method in brief: as §1
# [26] = biological target: Neu5Ac(a2-6)Gal(b1-4)GlcNAc(b1-2)Man(a1-6)[Gal(b1-4)GlcNAc(b1-2)Man(a1-3)]Man(b1-4)GlcNAc(b1-4)GlcNAc
# Method in brief: as §1
# [27] = biological target: Neu5Ac(a2-6)Gal(b1-4)GlcNAc(b1-2)Man(a1-6)[GlcNAc(b1-2)Man(a1-3)]Man(b1-4)GlcNAc(b1-4)GlcNAc
# Method in brief: as §1
# [28] = biological target: Neu5Ac(a2-6)Gal(b1-4)GlcNAc(b1-2)Man(a1-6)[Man(a1-3)]Man(b1-4)GlcNAc(b1-4)GlcNAc
# Method in brief: as §1
# [29] = biological target: Neu5Ac(a2-6)Gal(b1-4)GlcNAc(b1-3)Gal(b1-3)GlcNAc
# Method in brief: as §1
# [30] = biological target: Neu5Ac(a2-6)Gal(b1-4)GlcNAc(b1-3)Gal(b1-4)GlcNAc
# Method in brief: as §1
# [31] = biological target: Neu5Ac(a2-6)Gal(b1-4)GlcNAc(b1-3)Gal(b1-4)GlcNAc(b1-3)Gal(b1-4)GlcNAc
# Method in brief: as §1
# [32] = biological target: Neu5Ac(a2-6)Gal(b1-4)GlcNAc(b1-3)Gal(b1-4)[Fuc(a1-3)]GlcNAc(b1-3)Gal(b1-4)[Fuc(a1-3)]GlcNAc
# Method in brief: as §1
# [33] = biological target: Neu5Ac(a2-6)Gal(b1-4)GlcNAc(b1-3)GalNAc
# Method in brief: as §1
# [34] = biological target: Neu5Ac(a2-6)Gal(b1-4)GlcNAc6S
# Method in brief: as §1
# [35] = biological target: Neu5Ac(a2-6)GalNAc
# Method in brief: as §1
# [36] = biological target: Neu5Ac(a2-6)GalNAc(b1-4)GlcNAc
# Method in brief: as §1
# [37] = biological target: Neu5Ac(a2-6)GlcNAc(b1-4)GlcNAc
# Method in brief: as §1
# [38] = biological target: Neu5Ac(a2-6)GlcNAc(b1-4)GlcNAc(b1-4)GlcNAc
# Method in brief: as §1
# [39] = biological target: Neu5Ac(a2-8)Neu5Ac
# Method in brief: as §1
# [40] = biological target: Neu5Ac(a2-8)Neu5Ac(a2-3)Gal(b1-4)Glc
# Method in brief: as §1
# [41] = biological target: Neu5Ac(a2-8)Neu5Ac(a2-3)[Gal(b1-3)GalNAc(b1-4)]Gal(b1-4)Glc
# Method in brief: as §1
# [42] = biological target: Neu5Ac(a2-8)Neu5Ac(a2-3)[GalNAc(b1-4)]Gal(b1-4)Glc
# Method in brief: as §1
# [43] = biological target: Neu5Ac(a2-8)Neu5Ac(a2-8)Neu5Ac
# Method in brief: as §1
# [44] = biological target: Neu5Ac(a2-8)Neu5Ac(a2-8)Neu5Ac(a2-3)Gal(b1-4)Glc
# Method in brief: as §1
# [45] = biological target: Neu5Ac(a2-8)Neu5Ac(a2-8)Neu5Ac(a2-3)[GalNAc(b1-4)]Gal(b1-4)Glc
# Method in brief: as §1
# [46] = biological target: Neu5Ac(a2-8)Neu5Ac(a2-8)Neu5Ac(a2-8)Neu5Ac(a2-3)[GalNAc(b1-4)]Gal(b1-4)Glc
# Method in brief: as §1
# [47] = biological target: Neu5Ac(b2-6)Gal(b1-4)GlcNAc
# Method in brief: as §1
# [48] = biological target: Neu5Ac(b2-6)GalNAc
# Method in brief: as §1
# [49] = biological target: Neu5Ac9Ac(a2-3)Gal(b1-3)GlcNAc
# Method in brief: as §1
# [50] = biological target: Neu5Ac9Ac(a2-3)Gal(b1-4)GlcNAc
# Method in brief: as §1
# [51] = biological target: Neu5Ac9Ac(a2-6)Gal(b1-4)GlcNAc
# Method in brief: as §1
# [52] = biological target: Neu5Gc(a2-3)Gal(b1-3)GlcNAc
# Method in brief: as §1
# [53] = biological target: Neu5Gc(a2-3)Gal(b1-3)[Fuc(a1-4)]GlcNAc
# Method in brief: as §1
# [54] = biological target: Neu5Gc(a2-3)Gal(b1-4)Glc
# Method in brief: as §1
# [55] = biological target: Neu5Gc(a2-3)Gal(b1-4)GlcNAc
# Method in brief: as §1
# [56] = biological target: Neu5Gc(a2-3)Gal(b1-4)[Fuc(a1-3)]GlcNAc
# Method in brief: as §1
# [57] = biological target: Neu5Gc(a2-6)Gal(b1-4)GlcNAc
# Method in brief: as §1
# [58] = biological target: Neu5Gc(a2-6)GalNAc
# Method in brief: as §1
# [59] = biological target: Neu5Gc(b2-6)Gal(b1-4)GlcNAc
# Method in brief: as §1
binder,measurement,setting,value
B1,glycan array binding signal (z-score),[1],1.71
same,glycan array binding signal (z-score),[2],-0.317
same,glycan array binding signal (z-score),[3],2.62
same,glycan array binding signal (z-score),[4],0.19
same,glycan array binding signal (z-score),[5],-0.084
same,glycan array binding signal (z-score),[6],0.515
same,glycan array binding signal (z-score),[7],1.38
same,glycan array binding signal (z-score),[8],1.1
same,glycan array binding signal (z-score),[9],0.375
same,glycan array binding signal (z-score),[10],-0.183
same,glycan array binding signal (z-score),[11],0.067
same,glycan array binding signal (z-score),[12],0.561
same,glycan array binding signal (z-score),[13],-0.012
same,glycan array binding signal (z-score),[14],-0.053
same,glycan array binding signal (z-score),[15],-0.183
same,glycan array binding signal (z-score),[16],-0.09
same,glycan array binding signal (z-score),[17],-0.183
same,glycan array binding signal (z-score),[18],-0.063
same,glycan array binding signal (z-score),[19],0.814
same,glycan array binding signal (z-score),[20],-0.182
same,glycan array binding signal (z-score),[21],0.704
same,glycan array binding signal (z-score),[22],0.63
same,glycan array binding signal (z-score),[23],0.386
same,glycan array binding signal (z-score),[24],0.615
same,glycan array binding signal (z-score),[25],-0.091
same,glycan array binding signal (z-score),[26],-0.38
same,glycan array binding signal (z-score),[27],1.2
same,glycan array binding signal (z-score),[28],-0.281
same,glycan array binding signal (z-score),[29],0.08
same,glycan array binding signal (z-score),[30],-0.014
same,glycan array binding signal (z-score),[31],-0.075
same,glycan array binding signal (z-score),[32],0.277
same,glycan array binding signal (z-score),[33],1.14
same,glycan array binding signal (z-score),[34],0.765
same,glycan array binding signal (z-score),[35],-0.325
same,glycan array binding signal (z-score),[36],0.405
same,glycan array binding signal (z-score),[37],-0.219
same,glycan array binding signal (z-score),[38],-0.089
same,glycan array binding signal (z-score),[39],-0.07
same,glycan array binding signal (z-score),[40],0.956
same,glycan array binding signal (z-score),[41],-0.19
same,glycan array binding signal (z-score),[42],-0.311
same,glycan array binding signal (z-score),[43],0.261
same,glycan array binding signal (z-score),[44],0.442
same,glycan array binding signal (z-score),[45],-0.445
same,glycan array binding signal (z-score),[46],2.33
same,glycan array binding signal (z-score),[47],-0.242
same,glycan array binding signal (z-score),[48],0.283
same,glycan array binding signal (z-score),[49],0.2
same,glycan array binding signal (z-score),[50],-0.25
same,glycan array binding signal (z-score),[51],0.77
same,glycan array binding signal (z-score),[52],-0.514
same,glycan array binding signal (z-score),[53],0.034
same,glycan array binding signal (z-score),[54],-0.196
same,glycan array binding signal (z-score),[55],-0.145
same,glycan array binding signal (z-score),[56],0.328
same,glycan array binding signal (z-score),[57],0.165
same,glycan array binding signal (z-score),[58],0.497
same,glycan array binding signal (z-score),[59],-0.222
